The source of these data is a collection of fitness landscapes (doi:10.1038/s41467-024-54723-y).

The full ranking holds about 18,000 sequences; the median of “TetR repression strength (sort-seq, GFP reporter)” is about 0.23, and the highest 2% start at about 0.68. This is one part of the list.

UniProt P04483, sequence (P04483 whole entry): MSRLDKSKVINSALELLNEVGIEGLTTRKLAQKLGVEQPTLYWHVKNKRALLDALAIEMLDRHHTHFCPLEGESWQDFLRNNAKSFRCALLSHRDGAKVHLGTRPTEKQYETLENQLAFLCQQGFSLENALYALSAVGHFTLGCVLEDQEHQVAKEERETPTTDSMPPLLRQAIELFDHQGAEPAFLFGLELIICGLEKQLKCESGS

The assay deals with TetR (class B, Tn10) (UniProt P04483). Briefly: TetR repression strength (sort-seq, GFP reporter) (relative to tetO2 = 1); higher = stronger repression. The following applies: E. coli. The procedure, abridged:
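Three independent transformations of E. coli SIG10-MAX were made with a low-copy plasmid library randomizing eight operator positions between a constitutive promoter and sfGFP, with constitutive TetR. Following 5 h at 37 °C in LB plus 50 µg/mL chloramphenicol, 10^6 cells went through FACS into 13 fluorescence bins, and each bin was sequenced by Illumina. Repression strength was defined as the top bin index plus one minus the read-weighted mean bin, divided by the unaltered operator's value. Averages included only members reaching ≥30 reads in all replicates with a CV ≤0.5.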
Take TCCCAACGAGTTTAGGAGA: the TetR repression strength is 0.245. Next, TCCCGAGTAGTCGCCGAGA: 0.0944. With TCCCCAGCAGTAGTTGAGA the figure was 0.207. With TCCCATAGAGTTTATGAGA the figure was 0.178. With TCCCACGCAGTCAAAGAGA, the TetR repression strength was found to be 0.287. Take TCCCAACTAGTTTTCGAGA: the TetR repression strength amounted to 0.378.

For TCCCGCGTAGTCTCAGAGA, the TetR repression strength was determined as 0.326.

The sequence TCCCGATAAGTAGACGAGA had a TetR repression strength of 0.275. Next, TCCCTAATAGTGCGAGAGA: 0.309; TCCCACGTAGTAGTAGAGA: 0.196. TCCCGGGGAGTCGCAGAGA gave a TetR repression strength of 0.253. As to TCCCGCTCAGTTTAGGAGA, the TetR repression strength was determined as 0.205. Next, TCCCACGAAGTTTGCGAGA: 0.265. TCCCTGATAGTTGGCGAGA: the TetR repression strength came out at 0.317. Next, TCCCAGGTAGTCTGAGAGA: 0.196; TCCCTGGTAGTGGCGGAGA: 0.0597. The sequence TCCCACCAAGTGTCGGAGA displayed a TetR repression strength of 0.0251. TCCCCGGTAGTCAGGGAGA: the TetR repression strength worked out at 0.501. TCCCCGGAAGTGCGCGAGA showed a TetR repression strength of 0.362. Turning to TCCCGCCTAGTGCTTGAGA, the TetR repression strength is 0.24. In turn, TCCCGCACAGTGGAAGAGA yielded a TetR repression strength of 0.259. With TCCCATCGAGTGTCTGAGA the figure was 0.193; with TCCCCATGAGTGCTAGAGA, 0.29. The sequence TCCCAAGCAGTGCCCGAGA yielded a TetR repression strength of 0.183. In turn, TCCCGGGCAGTAGATGAGA registered a TetR repression strength of 0.0336. Next, TCCCGGATAGTCAGTGAGA: 0.203. Take TCCCGAAAAGTTATGGAGA: the TetR repression strength stood at 0.201.

Sequence TCCCACAGAGTAGTGGAGA gave a TetR repression strength of 0.166. Take TCCCAGGGAGTGGGCGAGA: the TetR repression strength worked out at 0.312. TCCCCGTTAGTGTAGGAGA showed a TetR repression strength of 0.179. With TCCCGACTAGTGAAGGAGA the figure was 0.637. Next, TCCCAGATAGTGCATGAGA: 0.138; TCCCAACGAGTGCCTGAGA: 0.0837. In turn, TCCCTGCAAGTTCCTGAGA displayed a TetR repression strength of 0.272. For the sequence TCCCGCTTAGTTGATGAGA, the TetR repression strength was found to be 0.233. Regarding TCCCAACTAGTGCACGAGA, the TetR repression strength was found to be 0.328. The sequence TCCCCCCTAGTGCACGAGA displayed a TetR repression strength of 0.217. Next, TCCCCATAAGTCAGGGAGA: 0.0546; TCCCGCCGAGTTCATGAGA: 0.28. Sequence TCCCTGGCAGTATACGAGA gave a TetR repression strength of 0.077. Sequence TCCCAGTGAGTACCCGAGA showed a TetR repression strength of 0.261. TCCCTCGCAGTCATCGAGA registered a TetR repression strength of 0.621. With TCCCGTGGAGTGGGTGAGA the figure was 0.181; with TCCCGAAAAGTGTGCGAGA, 0.176.

Sequence TCCCGGGTAGTCGGAGAGA registered a TetR repression strength of 0.313. Take TCCCCATTAGTAGGGGAGA: the TetR repression strength came out at 0.455.

Sequence TCCCCGAAAGTAGCCGAGA displayed a TetR repression strength of 0.169. Sequence TCCCCCACAGTGACGGAGA had a TetR repression strength of 0.639. Sequence TCCCTGGAAGTCAGGGAGA registered a TetR repression strength of 0.236. As to TCCCAGCTAGTTTGGGAGA, the TetR repression strength is 0.273. The sequence TCCCGACGAGTTGGTGAGA displayed a TetR repression strength of 0.199. In the case of TCCCTCGAAGTGCCTGAGA, the TetR repression strength came to 0.316. Regarding TCCCTGACAGTGGTCGAGA, the TetR repression strength was 0.148. Consider TCCCTGCCAGTGATTGAGA, for which the TetR repression strength worked out at 0.574. TCCCTCCTAGTGCACGAGA came in with a TetR repression strength of 0.334. In turn, TCCCTTAGAGTGCCAGAGA returned a TetR repression strength of 0.207.

Turning to TCCCGTTCAGTAGAAGAGA, the TetR repression strength was found to be 0.141. TCCCAGCAAGTGGTAGAGA: the TetR repression strength worked out at 0.43. Take TCCCGTTCAGTGTGGGAGA: the TetR repression strength came out at 0.0348. As for TCCCCTCGAGTCGGTGAGA, the TetR repression strength was found to be 0.263. Take TCCCGGTCAGTAACGGAGA: the TetR repression strength was 0.173. Next, TCCCGAGGAGTACGAGAGA: 0.222; TCCCAGACAGTTCCCGAGA: 0.324. With TCCCCGTAAGTGTTGGAGA, the TetR repression strength was 0.176. TCCCTGTGAGTACCAGAGA had a TetR repression strength of 0.292. With TCCCCATGAGTACGGGAGA the figure was 0.236; with TCCCTACCAGTATGGGAGA, 0.287; with TCCCGGCTAGTAGGTGAGA, 0.259. TCCCGGGGAGTGGATGAGA: the TetR repression strength worked out at 0.154. For the sequence TCCCGTCGAGTCGTTGAGA, the TetR repression strength is 0.134. In turn, TCCCTATGAGTAACCGAGA came in with a TetR repression strength of 0.179.

TCCCTTAAAGTACTCGAGA registered a TetR repression strength of 1.16. TCCCTTAAAGTCGGCGAGA showed a TetR repression strength of 0.202. Regarding TCCCAATTAGTACTGGAGA, the TetR repression strength was determined as 0.0503. The sequence TCCCGTTAAGTGGGTGAGA returned a TetR repression strength of 0.211.

Take TCCCTAGCAGTGCATGAGA: the TetR repression strength stood at 0.422. As for TCCCTCGGAGTTTGCGAGA, the TetR repression strength was determined as 0.311. Turning to TCCCGGGTAGTGTAGGAGA, the TetR repression strength came out at 0.284. Turning to TCCCGTGTAGTTCTGGAGA, the TetR repression strength was found to be 0.189.

TCCCGGTGAGTAGATGAGA gave a TetR repression strength of 0.205.

In turn, TCCCCCGAAGTGGGTGAGA registered a TetR repression strength of 0.346. The sequence TCCCGGCAAGTTAAGGAGA gave a TetR repression strength of 0.242. With TCCCTTACAGTTGGTGAGA the figure was 0.36.

In the case of TCCCGGAGAGTGATCGAGA, the TetR repression strength amounted to 0.304. TCCCCAGTAGTGGTTGAGA came in with a TetR repression strength of 0.207. Next, TCCCTCAAAGTCCATGAGA: 0.364; TCCCGCCGAGTGGGTGAGA: 0.138.

TCCCGGACAGTTGGTGAGA yielded a TetR repression strength of 0.421. The sequence TCCCATTGAGTGGCGGAGA displayed a TetR repression strength of 0.0422.

Sequence TCCCGAACAGTTGCAGAGA registered a TetR repression strength of 0.181. TCCCTTAAAGTCCCAGAGA: the TetR repression strength turned out to be 0.302. As for TCCCCGGGAGTAAGGGAGA, the TetR repression strength was 0.23. In the case of TCCCGCAGAGTGTGAGAGA, the TetR repression strength worked out at 0.124. Next, TCCCCCTAAGTGTCTGAGA: 0.247; TCCCTGCGAGTGTATGAGA: 0.14. With TCCCTCAGAGTGAGGGAGA the figure was 0.359; with TCCCTGCGAGTCGCGGAGA, 0.207.

For the sequence TCCCTGGCAGTACTGGAGA, the TetR repression strength worked out at 0.187. Turning to TCCCCAATAGTCCTCGAGA, the TetR repression strength is 0.409. Next, TCCCCGCGAGTCCATGAGA: 0.268; TCCCGTTGAGTACTTGAGA: 0.162; TCCCCGTCAGTGGGTGAGA: 0.276. TCCCTTTGAGTTTGCGAGA came in with a TetR repression strength of 0.293. The sequence TCCCAGCGAGTGTGTGAGA registered a TetR repression strength of 0.102.

In turn, TCCCAAGTAGTGGGGGAGA came in with a TetR repression strength of 0.133. The sequence TCCCTCCGAGTGGCTGAGA yielded a TetR repression strength of 0.17. With TCCCGAGTAGTGGTTGAGA the figure was 0.303; with TCCCTTGGAGTGCGTGAGA, 0.0933; with TCCCCGCTAGTGGTAGAGA, 0.305. Regarding TCCCCTATAGTATGTGAGA, the TetR repression strength was 0.112. In turn, TCCCTGAGAGTGGCCGAGA registered a TetR repression strength of 0.278. As to TCCCCCCGAGTGCGCGAGA, the TetR repression strength came out at 0.464.

As to TCCCGCGAAGTACGGGAGA, the TetR repression strength amounted to 0.309.

Sequence TCCCGGGCAGTAGGGGAGA registered a TetR repression strength of 0.251. Regarding TCCCAAAGAGTATGAGAGA, the TetR repression strength was 0.213.

Sequence TCCCAGATAGTCCCTGAGA registered a TetR repression strength of 0.479. In the case of TCCCGCGAAGTGCGCGAGA, the TetR repression strength was 0.0393. For the sequence TCCCAGTCAGTTGGAGAGA, the TetR repression strength was determined as 0.258. TCCCGGTGAGTGTCAGAGA had a TetR repression strength of 0.326. In the case of TCCCTTAGAGTCGCTGAGA, the TetR repression strength came to 0.293.

In turn, TCCCGAGTAGTTAAGGAGA had a TetR repression strength of 0.21.

Sequence TCCCCGGTAGTAGTTGAGA registered a TetR repression strength of 0.217.

TCCCATCGAGTACATGAGA showed a TetR repression strength of 0.286.

Sequence TCCCTATCAGTGGACGAGA showed a TetR repression strength of 0.574.

TCCCCACTAGTTCAGGAGA came in with a TetR repression strength of 0.288. Next, TCCCAACAAGTATGCGAGA: 0.235. Turning to TCCCCGCAAGTAGCAGAGA, the TetR repression strength was 0.189. In turn, TCCCCTCCAGTTCCCGAGA showed a TetR repression strength of 0.256.

Turning to TCCCCCGGAGTCGGCGAGA, the TetR repression strength was 0.0518.

As for TCCCTATGAGTCAGGGAGA, the TetR repression strength was 0.13.
